# Assay results taken from paper PMC4336329 (PLoS ONE, 2015).
# Screen size: about 310,000 compounds; about 14,000 (4.5%) showed an effect of 50% or more. The effect is printed as a negative number. The list shows a part of the results.
# Target: human ether-à-go-go-related gene (hERG) potassium channel (human, UniProt Q12809)
# Assay: primary screen, population patch clamp on CHO cells stably expressing hERG
# 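Further: peak tail current of the secondary pulse compared with the same well before compound.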
# Chain of human ether-à-go-go-related gene (hERG) potassium channel (Q12809 whole entry, looked up): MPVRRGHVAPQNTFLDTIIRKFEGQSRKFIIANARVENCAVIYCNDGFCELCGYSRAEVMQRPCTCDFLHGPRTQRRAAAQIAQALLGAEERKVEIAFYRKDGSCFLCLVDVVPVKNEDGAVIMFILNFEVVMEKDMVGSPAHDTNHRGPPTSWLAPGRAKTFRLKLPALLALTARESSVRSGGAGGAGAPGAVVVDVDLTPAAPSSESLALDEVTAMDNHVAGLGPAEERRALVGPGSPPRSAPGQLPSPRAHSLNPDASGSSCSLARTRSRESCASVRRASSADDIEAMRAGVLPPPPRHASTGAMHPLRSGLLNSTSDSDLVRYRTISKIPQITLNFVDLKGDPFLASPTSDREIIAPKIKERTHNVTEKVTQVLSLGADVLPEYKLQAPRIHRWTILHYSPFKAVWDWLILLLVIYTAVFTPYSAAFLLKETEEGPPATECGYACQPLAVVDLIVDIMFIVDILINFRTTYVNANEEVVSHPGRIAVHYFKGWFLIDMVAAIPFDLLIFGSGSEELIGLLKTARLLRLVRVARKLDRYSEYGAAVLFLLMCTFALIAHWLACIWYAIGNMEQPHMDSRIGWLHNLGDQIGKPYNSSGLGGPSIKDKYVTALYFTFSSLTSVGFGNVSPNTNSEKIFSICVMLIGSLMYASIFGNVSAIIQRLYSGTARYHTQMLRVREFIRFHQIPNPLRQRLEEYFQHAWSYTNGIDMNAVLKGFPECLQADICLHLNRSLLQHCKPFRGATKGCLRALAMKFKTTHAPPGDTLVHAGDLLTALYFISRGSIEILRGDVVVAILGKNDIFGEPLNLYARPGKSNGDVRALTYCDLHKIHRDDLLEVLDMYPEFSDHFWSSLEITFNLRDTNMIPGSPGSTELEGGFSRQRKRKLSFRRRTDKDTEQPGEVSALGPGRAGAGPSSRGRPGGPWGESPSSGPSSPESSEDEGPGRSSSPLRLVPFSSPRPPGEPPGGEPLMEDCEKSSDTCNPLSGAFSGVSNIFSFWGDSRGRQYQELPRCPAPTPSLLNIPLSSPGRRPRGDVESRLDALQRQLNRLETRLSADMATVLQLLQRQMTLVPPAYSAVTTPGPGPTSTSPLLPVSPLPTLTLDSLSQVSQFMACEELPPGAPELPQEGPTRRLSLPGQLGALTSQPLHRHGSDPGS
row,SMILES,"hERG current change (%, negative = inhibition) at 10uM"
1,COCCNC(=O)CN1C2CCC1CC(O)(c1cccnc1)C2 (stereo not shown),0.682%
2,Cc1nc2sc(C)c(C)c2c(=O)o1,11.1%
3,CC(OC(=O)c1ccccc1O)C(=O)Nc1cccc(Cl)c1 (stereo not shown),-9.12%
4,O=[N+]([O-])c1ccc(N2CCOCC2)cc1NCc1ccccc1,-3.2%
5,COc1cccc(C2C(C(N)=O)=C(C)Nc3nc(-c4ccccc4Cl)nn32)c1 (stereo not shown),-20.6%
6,Cc1nc(NC(=O)c2ccc(OCC(C)C)cc2)sc1Cc1ccc2c(c1)OCO2,28.3%
7,COc1ccc(-c2cc(C(=O)Nc3cc(C)ccc3O)no2)cc1,16.4%
8,CCC(=O)N1N=C2CC(C)(C)OCC2C1c1ccccc1 (stereo not shown),6.62%
9,O=C(CSc1ccc2nnc(-c3ccccn3)n2n1)Nc1ccc2c(c1)OCO2,-33.7%
10,CN(Cc1ccccc1)C(=O)CCC1CCN(C(=O)c2ccccc2C(F)(F)F)CC1,8.38%
11,CCOC(=O)c1cc(-c2ccc(/C=C3/C(=O)NC(=O)C(C#N)=C3C)o2)ccc1Cl,9.77%
12,COc1ccc(CNC(=O)COC(=O)c2cnccn2)cc1,10.7%
13,c1ccc(CC2CCN(c3nc4ccccc4n4cnnc34)CC2)cc1,4.3%
14,CCCCNc1ccccc1C(=O)OCC(=O)Nc1ccc(S(N)(=O)=O)cc1,-4.61%
15,CCOc1ccc(-n2c(SCC(=O)Nc3ccc(Br)cc3)nc3n[nH]c(C)c3c2=N)cc1,15%
16,CCc1noc(C)c1C(=O)Nc1ccc(C(F)(F)F)cc1,2.37%
17,CC1CN(C(=S)Nc2ccccc2F)CC(C)O1 (stereo not shown),13.9%
18,Cc1ccc(S(=O)(=O)NC(N)=NCCc2ccccc2)cc1C,-3.72%
19,CCCCn1c(-c2ccc(Cl)c(Cl)c2)nc2cc3[nH]c(=O)c(C(C)C)nc3cc21,-2.23%
20,COc1ccc(/C(N)=N/OC(=O)CC2CCCCC2)cc1,7.9%
21,COc1ccc(CCC(C)Nc2cccc(C)c2)cc1 (stereo not shown),4.48%
22,O=C(NCCc1ccccc1)c1ccc2c(c1)OCO2,15.4%
23,COc1ccc(CC(=O)OCC(=O)Nc2ccc3c(c2)OCO3)cc1,-9.79%

row,SMILES,"hERG current change (%, negative = inhibition) at 10uM"
1,CC(=O)OCC(=O)C1CCC2C3CC=C4CC(O)CCC4(C)C3CCC12C (stereo not shown),22.1%
2,Cn1ncc(Br)c1NC(=O)Nc1ccc(Cl)cc1,16.7%
3,COCCN(C(=O)COC(=O)CCCOc1ccc(OC)cc1)c1c(N)n(Cc2ccccc2)c(=O)[nH]c1=O,4.6%
4,CCCNC(=O)c1ccc(N2CCC3(CC2)CC(c2cccc(Br)c2)=NO3)c([N+](=O)[O-])c1,-14.2%
5,NC(=S)NNC(=O)/C(=C/c1ccc(Br)cc1)NC(=O)c1ccccc1,40%
6,CC1Oc2ccccc2C=C1/C=N\NC(=O)c1cccnc1 (stereo not shown),-35%
7,CCCCOC(=O)Oc1ccc2c(=O)c(Oc3cc(C)cc(C)c3)coc2c1,10.6%
8,CC(=O)c1cc2c(cc1NS(=O)(=O)c1ccccc1Br)OCO2,14%
9,CCNC(=S)N(CCc1c(C)[nH]c2ccc(Cl)cc12)Cc1ccco1,-0.955%
10,Cc1cc(Cl)c2oc(C(=O)NCC(C)(C)N3CCOCC3)c(C)c2c1,6.96%
11,O=C(Nc1ccc(Cl)cc1)Nc1ccc(Oc2cccnc2)nc1,11.5%
12,O=C(COC(=O)C1CCN(/C=C/C(=O)C(F)(F)F)CC1)Nc1cccc(F)c1,-20.9%
13,O=C(Nc1ccc(Cl)cc1N1CCOCC1)C1CCCO1 (stereo not shown),11.8%
14,N#CCCN(C(=O)c1ccc2c(=O)n3c(nc2c1)CCCCC3)c1ccccc1,-13%
15,COc1ccc(CN(C(=O)c2cc3ccccc3oc2=O)C2CCS(=O)(=O)C2)cc1OC (stereo not shown),19.7%
16,CC1(c2ccco2)NC(=O)NC1=O (stereo not shown),5.73%
17,CCCNS(=O)(=O)c1cc(Cl)ccc1OC,15.8%
18,CC1CCN(C(=O)CSc2nncn2C)CC1,2.85%
19,NC(=O)C1CCN(C(=O)CNC(=O)c2ccc(Br)o2)CC1,-10.3%
20,COc1cc(OC)c(S(=O)(=O)Nc2ccc(C(=O)N3CCCC3)cc2)cc1NC(C)=O,13.6%
21,Cc1cccc(/C=N/n2c(C)cc(C)c(C#N)c2=O)c1,5.72%
22,Cc1ccc(Nc2nnc(SCC(=O)c3ccc(Br)s3)s2)c(C)c1,14.7%
23,O=C(c1coc(=O)c(Br)c1)N1CCCc2ccccc21,8.22%

row,SMILES,"hERG current change (%, negative = inhibition) at 10uM"
1,O=C(O)/C(=C\c1cn(-c2ccccc2)nc1-c1ccc(Cl)cc1)NC(=O)c1ccccc1,9.42%
2,CCN(CC(=O)NCc1ccncc1)S(=O)(=O)c1ccc(OC)cc1,-8.29%
3,CCCCN(C(=S)NC(=O)c1ccccc1)c1c(N)n(Cc2ccccc2)c(=O)[nH]c1=O,12.5%
4,COc1ccc(NC(=O)/C=C/C(=O)O)cc1Cl,12.1%
5,COc1ccc(N2CC(C(=O)N3CCN(C)CC3)CC2=O)cc1 (stereo not shown),15.4%
6,CCC(=O)NC(c1ccccc1)c1c(O)ccc2ccccc12 (stereo not shown),18.9%
7,COC(=O)c1sc(NC(=O)CSc2nnc(C(C)C)n2C)nc1C,6.64%
8,N#Cc1nc(-c2ccc(OCc3ccccc3)cc2)oc1NCc1ccco1,7.75%
9,COCCNC(=S)N1CCN(c2nc(-c3ccccc3)cs2)CC1,-5.78%
10,COC(=O)c1cnn2c(C(F)(F)F)cc(-c3ccco3)nc12,0.654%
11,CC(=O)c1csc(-c2ccccc2)n1,14.5%
12,CCOC(=O)C(CC)Sc1nc2c(cnn2-c2ccccc2)c(=O)[nH]1 (stereo not shown),1.26%
13,O=C(NNc1ncc(C(F)(F)F)cc1Cl)c1c(Cl)cccc1Cl,-6.26%
14,CCc1ccc(NC(=O)c2cc(C)nn2-c2ccccc2)cc1,-3.26%
15,CC1CC(=O)Nc2ccccc2N1S(=O)(=O)c1ccc(Br)cc1 (stereo not shown),19.1%
16,NC(=O)NC(=O)CSc1ccccc1,17.1%
17,CC1CC(OC(=O)CN2CCCCC2)CC(C)(C)C1 (stereo not shown),12.8%
18,O=C(O)C1CCN(C(=O)c2ccccc2C(=O)N2CCC(C(=O)O)CC2)CC1,20.4%
19,Cc1cc(=O)oc2c(C)c(OC(C)C(=O)NCC(O)c3ccccc3)ccc12 (stereo not shown),5.59%
20,CC(=O)C(Cc1ccccc1)NC(=O)CN(C)Cc1ccccc1Cl (stereo not shown),-17.8%
21,Cc1ccc(C(=O)OCC(=O)N2CC(C)CC(C)C2)cc1S(=O)(=O)N1CCCCC1 (stereo not shown),-37.5%
22,Cc1nnc2sc(SCc3ccccc3Cl)nn2c1=O,-14.9%
23,CC(=O)N1CCSc2ccc(S(=O)(=O)Nc3ccccc3C)cc21,-4.17%

row,SMILES,"hERG current change (%, negative = inhibition) at 10uM"
1,Cc1ccc2[nH]c(SCC(=O)N3CCOCC3)nc2c1C,8.6%
2,CN(C)c1ccc(CNC(=O)c2cc(S(=O)(=O)N3CCCC3)cn2C)cc1,-10%
3,CC(=O)Nc1nc2ccccc2n1Cc1ccccc1,-20.3%
4,O=C(CCCCCNc1nc(=S)[nH]c2ccccc12)NCc1ccccc1Cl,-8.69%
5,O=C(Nc1ccc(Cl)c(Cl)c1)N(CCCN1CCOCC1)Cc1cccnc1,-55.5%
6,COc1ccc(C(CNC(=O)C2CC(=O)N(Cc3ccc(C)cc3)C2)N(C)C)cc1 (stereo not shown),-17.4%
7,COc1cc(C(=O)OCC(=O)N(CC(C)C)C2CCS(=O)(=O)C2)ccc1OCC(C)C (stereo not shown),-12.4%
8,COc1ccc(N2C(=O)CC(n3cnc4ccccc43)C2=O)cc1 (stereo not shown),0.448%
9,Cc1ccc(-c2ccc(C3C(C#N)=C(N)Oc4n[nH]c(C)c43)o2)cc1 (stereo not shown),12%
10,CCOC(=O)c1c(NC(NC(=O)C(C)C)C(Cl)(Cl)Cl)sc2c1CCC2 (stereo not shown),11%
11,O=C(NCc1cccnc1)C(Cl)(Cl)Cl,0.208%
12,Cn1c(=O)[nH]c(=O)c2c1nc(NCc1ccccc1)n2CCCc1ccccc1,3.53%
13,O=C(OCC(=O)N1CCCCC1)c1ccccc1SCC(=O)N1CCCCC1,11.2%
14,O=C(Cc1ccc([N+](=O)[O-])cc1)NC(C(=O)[O-])C(O)c1cccc([N+](=O)[O-])c1.[Na+] (stereo not shown),-0.659%
15,O=C(NC(=S)Nc1cccnc1)c1cccc(Br)c1,14.9%
16,Cc1nc2ccc(NC(=O)N3CCOCC3)cc2s1,14.5%
17,CCOC(=O)c1oc2ccc(Cl)cc2c1NC(C)=O,9.36%
18,CSc1nsc(SC)c1NC(=O)OCC1CCCO1 (stereo not shown),19.7%
19,CCOc1ccc(C(=O)NCC(=O)OCc2c(F)cccc2Cl)cc1,-2.7%
20,CCOc1ccc(C(=O)NCC(=O)NCC(c2ccco2)N2CCCCC2)cc1OCC (stereo not shown),-30.8%
21,Cc1nn(-c2ccccc2)c(Cl)c1/C=N/NC(=O)c1ccccc1F,14.6%
22,COc1cc(CNCc2ccccn2)ccc1OCc1cccc(Cl)c1.Cl,-54%
